Laboratory results: the supplement of paper PMC4604168 (melanoma cell lines)
This is one part of the list. Single values are uncertain, as repeats are few or missing.

Key:
Assay in all cases: cell count relative to DMSO control; melanoma cells; higher = more viable cells
Conditions in all cases: library dose: standard library concentration; 72 h
A101D = tested on: A101D
A2058 = tested on: A2058
A375 = tested on: A375
501Mel = tested on: 501Mel
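Further: cells treated in 1,536-well plates, then fixed and DAPI-stained, with nuclei counted from automated high-throughput microscope images.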

SMILES	cell count (A101D)	cell count (A2058)	cell count (A375)	cell count (501Mel)
COCC[n+]1c2c(n(Cc3cnccn3)c1C)C(=O)c1ccccc1C2=O + Nc1cccc2c1CN(C1CCC(=O)NC1=O)C2=O [lenalidomide] (first compound 0.002 µM, partner dose 5 µM)	73.4%	20.3%	67.7%	
C#Cc1cccc(Nc2ncnc3cc(OCCOC)c(OCCOC)cc23)c1 [erlotinib] + CC(C)CCN1c2nc(Nc3cc(F)c(O)c(F)c3)ncc2N(C)C(=O)C1C [BID1870] (first compound 4 µM, partner dose 1 µM)	59%	74.2%	89.7%	69.1%
Nc1cccc2c1CN(C1CCC(=O)NC1=O)C2=O (stereo unspecified) [lenalidomide] + Oc1cc(-c2nc(-c3ccccc3)[nH]c2-c2ccncc2)ccc1Cl [L779450] (first compound 5 µM, partner dose 1 µM)	70.1%	92.4%	80.9%	88.4%
COCC[n+]1c2c(n(Cc3cnccn3)c1C)C(=O)c1ccccc1C2=O + COC(=O)c1sccc1S(=O)(=O)Nc1ccc(Nc2ccccc2)cc1OC [GSK0660] (first compound 0.002 µM, partner dose 5 µM)	92.5%	36.2%	95.8%	84.8%
Nc1cccc2c1CN(C1CCC(=O)NC1=O)C2=O (stereo unspecified) [lenalidomide] + COc1ccc(COc2ccc(Cc3cnc(N)nc3N)cc2OC)cc1 [GW2580] (first compound 5 µM, partner dose 5 µM)	100%	95.3%	93.5%	80.9%
Clc1ccc(Nc2nnc(Cc3ccncc3)c3ccccc23)cc1 [vatalanib] + NCC(=O)Nc1ccc(-n2nc(C(F)(F)F)cc2-c2ccc3c(ccc4ccccc43)c2)cc1 [OSU03012] (first compound 10 µM, partner dose 5 µM)	81.9%	46.8%	47.8%	
Cn1c(Nc2ccc(C(F)(F)F)cc2)nc2cc(Oc3ccnc(-c4ncc(C(F)(F)F)[nH]4)c3)ccc21 + O=S(=O)(c1ccccc1)N(CC(F)(F)F)c1ccc(C(O)(C(F)(F)F)C(F)(F)F)cc1 [T0901317] (first compound 0.4 µM, partner dose 7 µM)	55.1%	80.6%	59.6%	33.6%
Clc1ccc(Nc2nnc(Cc3ccncc3)c3ccccc23)cc1 [vatalanib] + CC(C)CCN1c2nc(Nc3cc(F)c(O)c(F)c3)ncc2N(C)C(=O)C1C [BID1870] (first compound 10 µM, partner dose 1 µM)	68.8%	85.3%	75.6%	56.4%
OCc1c[nH]c2ccccc12 [Indole-3-carbinol] + Cn1cc(/C=C2\C(=O)Nc3cccnc32)c2ccccc21 [GW441756] (first compound 4 µM, partner dose 2 µM)	99.4%	104%	144%	78.2%
C#Cc1cccc(Nc2ncnc3cc(OCCOC)c(OCCOC)cc23)c1 [erlotinib] + Cc1cc([N+](=O)[O-])ccc1NS(=O)(=O)c1cc(Cl)ccc1Cl [FH535] (first compound 4 µM, partner dose 5 µM)	65.6%	66.3%	88.3%	51.3%
Clc1ccc(Nc2nnc(Cc3ccncc3)c3ccccc23)cc1 [vatalanib] + COc1cc(N2CCC(N3CCN(C)CC3)CC2)ccc1Nc1ncc(Cl)c(Nc2ccccc2S(=O)(=O)C(C)C)n1 [NVP-TAE684] (first compound 10 µM, partner dose 0.4 µM)	86%	48.1%	78.9%	44.8%
Nc1cccc2c1CN(C1CCC(=O)NC1=O)C2=O (stereo unspecified) [lenalidomide] + COC(=O)c1sccc1S(=O)(=O)Nc1ccc(Nc2ccccc2)cc1OC [GSK0660] (first compound 5 µM, partner dose 5 µM)	111%	79.4%	119%	77.4%
OCc1c[nH]c2ccccc12 [Indole-3-carbinol] + CCc1ccc(CCOc2ccc(CC3SC(=O)NC3=O)cc2)nc1 [pioglitazone] (first compound 4 µM, partner dose 10 µM)	95.4%	81.5%	82.5%	80.6%
COCC[n+]1c2c(n(Cc3cnccn3)c1C)C(=O)c1ccccc1C2=O + O=C1NC(=O)/C(=C/c2ccc(-c3ccc(F)cc3O)o2)S1 [AS252424] (first compound 0.002 µM, partner dose 5 µM)	103%	83.4%	125%	87.5%
Nc1cccc2c1CN(C1CCC(=O)NC1=O)C2=O (stereo unspecified) [lenalidomide] + O=C1NC(=O)/C(=C/c2ccc(-c3ccc(F)cc3O)o2)S1 [AS252424] (first compound 5 µM, partner dose 5 µM)	113%	94.6%	157%	88.2%
O=C(CCCCCCC(=O)Nc1ccccc1)NO [vorinostat] + CC(C)CCN1c2nc(Nc3cc(F)c(O)c(F)c3)ncc2N(C)C(=O)C1C [BID1870] (first compound 0.4 µM, partner dose 1 µM)	68.5%	89.3%	95.9%	60.9%
OCc1c[nH]c2ccccc12 [Indole-3-carbinol] + CCCCCCCCCCCC1=C(O)C(=O)C=C(O)C1=O [Embelin] (first compound 4 µM, partner dose 6 µM)	94.5%	107%	97.4%	53%
